According to PMC4336329 (PLoS ONE, 2015):
In all, about 310,000 compounds went through this assay and about 14,000 (4.5%) showed an effect of 50% or more. The effect is printed as a negative number. The list shows a part of the results.

Target: human ether-à-go-go-related gene (hERG) potassium channel (human, UniProt Q12809)
Assay: primary screen, population patch clamp on CHO cells stably expressing hERG
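Note: peak tail current of the secondary pulse compared with the same well before compound.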

human ether-à-go-go-related gene (hERG) potassium channel, sequence (Q12809 whole entry, looked up): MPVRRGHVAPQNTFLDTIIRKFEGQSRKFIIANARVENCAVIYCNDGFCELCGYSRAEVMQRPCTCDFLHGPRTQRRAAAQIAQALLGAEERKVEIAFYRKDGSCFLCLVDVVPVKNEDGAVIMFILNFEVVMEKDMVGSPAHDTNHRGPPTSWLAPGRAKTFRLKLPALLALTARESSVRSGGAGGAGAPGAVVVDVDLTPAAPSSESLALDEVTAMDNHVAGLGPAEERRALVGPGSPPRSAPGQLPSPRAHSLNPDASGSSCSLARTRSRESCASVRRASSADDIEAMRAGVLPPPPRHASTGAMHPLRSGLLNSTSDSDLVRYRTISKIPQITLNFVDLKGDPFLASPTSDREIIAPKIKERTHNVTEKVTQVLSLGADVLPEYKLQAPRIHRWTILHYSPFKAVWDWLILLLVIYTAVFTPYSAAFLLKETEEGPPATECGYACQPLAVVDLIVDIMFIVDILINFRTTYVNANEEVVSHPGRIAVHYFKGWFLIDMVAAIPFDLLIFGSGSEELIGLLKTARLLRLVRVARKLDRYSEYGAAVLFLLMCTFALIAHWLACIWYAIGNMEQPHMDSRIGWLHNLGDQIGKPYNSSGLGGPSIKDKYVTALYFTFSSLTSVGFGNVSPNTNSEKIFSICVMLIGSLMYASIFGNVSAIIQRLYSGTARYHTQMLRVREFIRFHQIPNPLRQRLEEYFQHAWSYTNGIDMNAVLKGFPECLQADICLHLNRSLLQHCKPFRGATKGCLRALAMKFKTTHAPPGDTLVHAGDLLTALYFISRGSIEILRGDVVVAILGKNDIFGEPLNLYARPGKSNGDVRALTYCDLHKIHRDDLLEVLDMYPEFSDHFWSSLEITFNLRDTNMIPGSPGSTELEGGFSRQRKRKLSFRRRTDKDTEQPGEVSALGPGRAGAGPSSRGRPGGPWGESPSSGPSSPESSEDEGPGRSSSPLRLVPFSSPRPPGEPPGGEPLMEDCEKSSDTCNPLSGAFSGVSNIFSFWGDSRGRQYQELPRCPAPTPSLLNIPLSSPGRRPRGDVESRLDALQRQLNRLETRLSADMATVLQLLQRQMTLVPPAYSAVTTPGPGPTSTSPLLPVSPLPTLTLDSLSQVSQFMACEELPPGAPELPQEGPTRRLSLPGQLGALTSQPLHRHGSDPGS

Structure (SMILES) | hERG current change (%, negative = inhibition) at 10uM [%]
COC(=O)c1ccccc1-c1ccc(/C=C2\C(=O)N(c3ccccc3)N=C2c2ccccc2)o1 | 5.89
CC(=O)c1ccc(NC(=O)C2CCN(S(=O)(=O)c3cccs3)CC2)cc1 | -19.4
C=CCn1cccc(C(=O)Nc2ccc(C)c(Cl)c2)c1=O | 10
COc1ccc(C(C(=O)OC(C)CN(C)C)c2ccccc2)cc1.Cl (stereo not drawn) | -34.1
CCOC(=O)C1CC2CC(C1)CN(C(=O)C1CCCCC1)C2 (stereo not drawn) | 31.4
CCOc1cc(CN2CCN(c3cccc(C(F)(F)F)c3)CC2)ccc1O | -73
Cc1[nH]c2ccccc2c1SCC(=O)N1CCCCC1 | 19.3
Cc1cccc(C)c1NC1=C(Cl)C(=O)OC1OC(=O)c1ccccc1 (stereo not drawn) | 21.1
CCc1ccc(C2NC(=S)NC3=C2C(=O)N(c2ccccc2OC)C(c2ccc(CC)cc2)N3)cc1 (stereo not drawn) | -8.82
CCOc1ccc(NC(=O)COc2ccc(C(=O)NCc3cccc(OC)c3)cc2OC)cc1 | -5.85
COc1ccccc1CNC(=O)c1cnccn1 | 0.0654
Cc1nc([N+](=O)[O-])cn1CCC#N | -1.22
O=C(CNC(=O)c1ccc(Br)o1)NNC(=O)c1cccc(Cl)c1 | -7.08
c1ccc(-n2nnnc2Oc2cccc3cccnc23)cc1 | -0.173
O=C(c1ccco1)N1CCN(c2nc(-c3ccc(F)cc3)cs2)CC1 | -34.9
CC(c1n[nH]c(=S)n1Cc1ccccc1)N(C)C (stereo not drawn) | 15.6
O=C1CCc2cc(NS(=O)(=O)c3ccc(Br)cc3)cc3c2N1CC3 | -13.5
COc1ccc(CCNS(=O)(=O)c2ccc3c(c2)CC(C)N3C(C)=O)cc1OC (stereo not drawn) | -7.6
Cc1nc(Cl)c(S(N)(=O)=O)c(C)c1Cl | 2.19
Cc1c(NC(=O)COC(=O)c2c3c(nc4ccccc24)CCCC3)c(=O)n(-c2ccccc2)n1C | -10.1
O=C(Cc1ccc2c(c1)OCCO2)c1c(O)cc(O)cc1O | -0.205
NC(=S)N/N=C1\CC(c2ccc3c(c2)OCCO3)Oc2ccc(F)cc21 (stereo not drawn) | 12.9
COc1cc(/C=C/C(=O)OCC(=O)NC(=O)NC(C)C)cc(S(=O)(=O)N2CCc3ccccc32)c1OC | 9

Structure (SMILES) | hERG current change (%, negative = inhibition) at 10uM [%]
COc1ccccc1NC(=O)c1ccc(NC(=O)COC(=O)CC(NC(=O)c2ccccc2Cl)c2ccccc2)cc1 (stereo not drawn) | 6.73
O=S(=O)(Nc1ccc(Br)cc1)N1CCOCC1 | 4.08
CC(=O)N1CCN(CC(C)(C)NS(=O)(=O)c2ccc(C)cc2)CC1 | 7.76
N#Cc1c(N)nc2c(c1N)CC(C(F)(F)F)O2 (stereo not drawn) | 45.7
Cc1cccc(NC(=S)N(Cc2ccc(Br)cc2)Cc2ccc(C(=O)O)cc2)c1 | 13.7
Cc1cc(C)nc(-n2ncc(C#N)c2N)n1 | 10.7
CC(=O)c1cccc(N2C(=O)CC(N3CCN(S(=O)(=O)c4ccc(Cl)cc4)CC3)C2=O)c1 (stereo not drawn) | 3.74
COc1ccc2[nH]c(=O)c(CN(Cc3cccnc3)Cc3nnnn3CC3CCCO3)cc2c1 (stereo not drawn) | -1.97
COc1ccc(OCCNC(=O)CCCO)cc1 | 21
COc1ccc(C2CCCN2C(=O)Nc2ccccc2)cc1OC (stereo not drawn) | -16.1
CC(=O)c1ccc(C(=O)N2CCC(CO)(Cc3cccc(C(F)(F)F)c3)CC2)cc1 | -74.6
Cc1ccnc(NC(=O)c2ccc3c(c2)C(=O)N(CC(C)C)C3=O)c1 | -10.5
O=C(c1cc(=O)c2cc(Cl)ccc2o1)N1CCN(Cc2ccccc2)CC1 | -70.8
COc1ccc2oc(=N)c(C(=O)Nc3ccc(Br)cc3)cc2c1 | 10.8
Cc1noc(/C=C/N(C)C)c1S(=O)(=O)N1CCC(C(=O)O)CC1 | 21.6
COc1cccc(-c2nn(-c3ccccc3)cc2CN(C)C(C)c2ccncn2)c1 (stereo not drawn) | -15.6
Cn1nnnc1SCc1nnc(-c2ccc(F)cc2)o1 | -6.36
Cc1cc(OCC(O)CN)ccc1Cl (stereo not drawn) | 8.74
O=C(CNC(=S)N(Cc1ccccc1)Cc1cccnc1)NC1CCCCC1 | -26.4
Cc1nnc(SCc2ccccc2)[nH]c1=O | 19.8
Cn1nccc1NC(=O)NC(=O)c1c(Cl)cccc1Cl | 11.6
COc1ccc(C(=O)Nc2ccc(N3CCC(C)CC3)cc2)cc1Br | 23.5
CCN1CCN(Cc2c(C)[nH]c3ccc(OC)cc3c2=O)CC1 | -6.99

Structure (SMILES) | hERG current change (%, negative = inhibition) at 10uM [%]
COc1ccccc1N1C(=O)CC(N2CCN(c3ccc(Cl)cc3)CC2)C1=O (stereo not drawn) | 1.61
C=CCNC(=O)N1CCCC(C(=O)c2cccc(OC(C)C)c2)C1 (stereo not drawn) | -0.855
O=C(c1ccccc1)c1ccc(-n2ccnc2)c([N+](=O)[O-])c1 | -25.8
COc1ccccc1NC(=O)c1ccc(-c2ccc(Br)cc2)o1 | -4.13
CCOc1ccc(NC(=O)[C@@H](NC(=O)c2ccco2)C(C)C)cc1 | -3.67
CCCCc1nc(NCCO)c(C#N)c2c1CCCC2 | -15.7
c1ccc(-c2ncc(CN3CCN(c4ccccn4)CC3)[nH]2)cc1 | -14.1
COc1ccc(CCNC(=O)CCn2c(=O)c3ccccc3n(CC(=O)NCC3CCCO3)c2=O)cc1OC (stereo not drawn) | 8.86
O=C1CCCN1CCC(=O)N1CCCC(Nc2ccc(F)c(F)c2)C1 (stereo not drawn) | 1.24
CCOC(=O)c1cc(-c2ccccc2)sc1NC(=O)c1ccc(OC)c(OC)c1 | -3.71
Cc1cccc(C2(c3cccc(C)c3)OC(=O)c3ccccc32)c1 | 7.88
O=C(Nc1ccc(Cl)c(Cl)c1)C1CCCCC1 | -8.42
CCOC(=O)NC(=O)/C(C#N)=N\Nc1cccc(OC)c1 | 24
O=C(c1ccccc1)N1N=C(c2ccccc2O)CC1c1ccccc1 (stereo not drawn) | 6.88
Cc1ccc(F)cc1NC(=O)C1CCN(c2cnccn2)CC1 | -1.38
CCN(CC)C(=O)/C(NC(=O)c1ccccc1)=C(/Sc1ncccn1)c1ccccc1 | 5.92
O=C(N/N=C/c1ccc(O)cc1)/C(=C/c1ccccc1)CCO | -9.24
CCOc1ccccc1/C=C(\C#N)C(=O)NC1CC1 | 13.6
CCOc1cc(CNC2CCCC2)ccc1OCc1ccccc1Cl.Cl | -50.6
Clc1cccc(Cl)c1CSc1nnc(-c2ccncc2)s1 | -14.6
Cc1ccc(CNS(=O)(=O)c2ccccc2[N+](=O)[O-])cc1 | 18.1
CCOc1[nH]n(-c2ccccc2)c(=O)c1C=Nc1ccccc1 | -2.58
CCOCCCn1c(=N)c(C(=O)NCCN2CCOCC2)cc2c(=O)n3cccc(C)c3nc21 | -53.6

Structure (SMILES) | hERG current change (%, negative = inhibition) at 10uM [%]
COc1ccc(-n2nc(N)c3c(=O)oc(N(C)C)nc32)cc1 | 9.77
Clc1ccc(N2CCN(c3nc4nonc4nc3N3CCSCC3)CC2)nc1 | -14.1
CCCOc1ccc2cc(-c3ccccn3)c(=O)oc2c1 | -12.3
O=C(Nc1nc2c(s1)CN(Cc1ccccc1)CC2)c1cccc(S(=O)(=O)N2CCc3ccccc32)c1 | 8.42
Cn1c(=O)n(C)c2cc([N+](=O)[O-])c(N3CCN(C(=O)C(C)(C)C)CC3)cc21 | -8.56
CC1=NN(C(=O)c2csc(C(C)C)c2)C(O)(C(F)(F)F)C1 (stereo not drawn) | -9.64
Cc1cccc(C(=O)NNC(=O)C2CCCO2)c1 (stereo not drawn) | -7.56
Cc1ccnc(NC(=O)c2ccc(Cl)cc2Cl)n1 | -0.909
O=C(O)CCCNC(=O)CCCNC(=O)C(c1ccccc1)c1ccccc1 | 40.1
Cc1[nH]c(=O)[nH]c(=O)c1S(=O)(=O)Nc1ccc(Br)cc1F | 8.85
Cc1cccc(NS(=O)(=O)c2csc(C(N)=O)c2)c1C | 9.1
O=C(c1ccc(Cl)cc1)N(Cc1ccccc1F)N1C(=O)CCCC1=O | -4.85
O=C(N/N=C/C=C/c1ccco1)c1cccc([N+](=O)[O-])c1 | -4.02
O=C(Nc1ccc(Cl)c(S(=O)(=O)N2CCOCC2)c1)[C@@H]1CCCN1C(=O)c1cccs1 | -57.6
CC(C)OC(=O)Cc1ccccc1 | 11.7
CCc1ccccc1NC(=S)N1N=CCC1c1ccccc1 (stereo not drawn) | -15.3
CCCCNc1cc(=O)oc2ccccc12 | -9.92
CC(C)c1ccc(NC(=O)Nc2cnccn2)cc1 | -20.3
CNc1c(NS(=O)(=O)c2ccc(F)cc2)c(=O)oc2ccccc12 | 15.1
COC(=O)Cn1cnc2c(nnn2Cc2ccc(Cl)cc2)c1=O | 49.3
COCCSc1nnc(NC(=O)c2ccc(OC)c([N+](=O)[O-])c2)s1 | 2.61
